The other results are listed elsewhere or left out.
B1: chr22:35295155:35295256:+|3pUTR|ENSG00000100281|unk|total|mutant (ssRNA)
RNA: GGGAGUUCUACAGUCCGACGAUCUUUCUUCUCCUGGCCCUGACAGAGCACUACAGCAUCAAAGUAAAUCUUUGGGGACAGUGCCGCCCAUCUGCAUCCUAUUUAAUUUCUUCCCUUCUCCCCACCAGUGUUGUCACAGGGCUACAACAGAGGAUUGAGCAUCA
B2: ENSG00000198589:be:win_3601|CDS|ENSG00000198589|bound_else_gene|NA|bound_elsewhere_windowed (ssRNA)
RNA: GGGAGUUCUACAGUCCGACGAUCGUAGAAUCAGACCUUGGUCAGAUGCUGGAGGAAGGGAAGAAAGCAACUAACCUCACUAGAGAAACCAAAUUAAUUAAUGAUUGUCAUGGUAGUGUCUCUGAGGCUUCUUCUGAGCAAAAGCAACAGAGGAUUGAGCAUCA
B3: chr1:225789428:225789553:+|3pUTR|ENSG00000143742|unk|total|mutant (ssRNA)
RNA: GGGAGUUCUACAGUCCGACGAUCUCCGAGAAAGUGUUGGGACAGAAAGUACUUUAUGUAACUAAGUGGGCUGUUCAGAAGCUCCGAGGUCAUUUUUUGUAAUUUUCUUUUUAAUUACUUCCGAGAGCCCGGGAUGCAAAUGUUCAACAGAGGAUUGAGCAUCA
B4: chr15:63071210:63071313:+|3pUTR|ENSG00000140416|unk|total|mutant (ssRNA)
RNA: GGGAGUUCUACAGUCCGACGAUCCCUUAAAUGCAAUUUAUUUACUUUUACCACUGUCACAGAAACAUCCACAAGAUACCAGCCCGGUCAGGGGGUGGGGAAAACACAUACAAAAAGGCAAGCCCAUGUCAGGGCGAUCCUGGUCAACAGAGGAUUGAGCAUCA
B5: ENSG00000124766:be:win_3251|3pUTR|ENSG00000124766|bound_else_gene|NA|bound_elsewhere_windowed (ssRNA)
RNA: GGGAGUUCUACAGUCCGACGAUCUCUCACACAGUUUAAAAAAUCAGCCCCUAAUUUCUCCAUGUUUACACUUCAAUCUGCAGGCUUCUUAAAGUGACAGUAUCCCUUAACCUGCCACCAGUGUCCACCCUCCGGCCCCCGUCUCAACAGAGGAUUGAGCAUCA
B6: chr15:80137503:80137604:+|CDS|ENSG00000086666|unk|total|mutant (ssRNA)
RNA: GGGAGUUCUACAGUCCGACGAUCCAAUUGCUCUUACAAUUACAAAGCCGAUGCUGCUGAGAAAAUCAGAAAAGAAAAUCCAGCCGUUGUUGGUGAAAAGAUCCAAAAGAUUUGAACUCCUGCUGGAAUACAAAAUUCUUGAGCCAACAGAGGAUUGAGCAUCA
B7: chr7:82953248:82953350:-|CDS|ENSG00000186472|unk|total|mutant (ssRNA)
RNA: GGGAGUUCUACAGUCCGACGAUCAACAGAUAUACACCCCAAACCAACAGGCCUAUCUUUAACUUCAAGUAUGACCUUAAAUUCCGUGACUUCAGCAGAUUAUAAAUUGCCUUCCCCUACCUCCCCACUUUCCCCACACUCCAACAACAGAGGAUUGAGCAUCA
B8: chr12:51809400:51809501:+|3pUTR|ENSG00000196876|unk|FALSE|unique (ssRNA)
RNA: GGGAGUUCUACAGUCCGACGAUCCUGCCUUGCAGUAGAAGCACUUUGAAGGUAAUUUCACAGUCCACCAGACUAGUUUUGCAUAGAACAAACCACAGUAAGUCGGCAAGCAGAGCUUUCUAUCUUGUUGGACCACUAGAAACUCAACAGAGGAUUGAGCAUCA
B9: chr2:197486603:197486717:-|3pUTR|ENSG00000144381|unk|FALSE|unique (ssRNA)
RNA: GGGAGUUCUACAGUCCGACGAUCCCACCAGAUGAGAAGUUAAGCAGCCUUUCUGUGGAGAGUGAGAAUAAUUGUGUACAAAGUAGAGAAGUAUCCAAUUAUGUGACAACCUUUGUGUAAUAAAAAUUUGUUUAAAGUUAAUAACAACAGAGGAUUGAGCAUCA
B10: ENSG00000070961:be:win_5001|3pUTR|ENSG00000070961|bound_else_gene|NA|bound_elsewhere_windowed (ssRNA)
RNA: GGGAGUUCUACAGUCCGACGAUCGAAUCAGAUUAAGAAAAUUAACACAAUUUUACCAUUUGACAUACUCUUCAUUGAAUUUAGUUUGUCUAAAAUAGUCUCACAGGUAAAAAACAUAACAACAAUGACCACCAUUGUCUUUGACAACAGAGGAUUGAGCAUCA
B11: chrX:21994482:21994713:+|3pUTR|ENSG00000102172|msi1|total|mutant (ssRNA)
RNA: GGGAGUUCUACAGUCCGACGAUCCAGCUGAAGGAUGGUCCGACAGCACAGCGAAGACUGCUAAAUGCACUGACCCCCCCCAUCCGAAUGUGAUUUUUGUUCCUUUUUAUUUCUCUGUGGGCUUUUGUUUUUGUUUUUGUUUUGCAACAGAGGAUUGAGCAUCA
B12: ENSG00000107863:be:win_5901|3pUTR|ENSG00000107863|bound_else_gene|NA|bound_elsewhere_windowed (ssRNA)
RNA: GGGAGUUCUACAGUCCGACGAUCAAGUAAAAAAACUACUGUUACACGUUCCAGUAACUCUGUCAAUAUUUUCUUGUAUCAGAAUUGUUAUUAUGCAGCCUUCAUUUGGGCUGGUUUCAUCAUUUUGCACUGUGAAAUAGCUUUCAACAGAGGAUUGAGCAUCA
B13: chr22:29286963:29287064:+|CDS|ENSG00000182944|unk|FALSE|unique (ssRNA)
RNA: GGGAGUUCUACAGUCCGACGAUCCAGAGCAGUUACUCUCAGCAGAACACCUAUGGGCAACCGAGCAGCUAUGGACAGCAGAGUAGCUAUGGUCAACAAAGCAGCUAUGGGCAGCAGCCUCCCACUAGUUACCCACCCCAAACUCAACAGAGGAUUGAGCAUCA
B14: chr8:17753977:17754079:-|CDS|ENSG00000129422|unk|FALSE|bound_elsewhere (ssRNA)
RNA: GGGAGUUCUACAGUCCGACGAUCAAAAAAGCAGAAAUUCUAAUUAACAAGACACAUAAGCAGCAGUUUAAUAAACUCAUUACUAGCCAGGCUGUGCAUGUUACAACUCAUUCUAAAAAUGCUUCACACAGGGUUCCAAGAACACAACAGAGGAUUGAGCAUCA
B15: chr2:159230815:159230918:+|CDS|ENSG00000115183|unk|FALSE|unique (ssRNA)
RNA: GGGAGUUCUACAGUCCGACGAUCAACCUGUUCUGUUUCUACCCUGAGUGCAAGUGUCCACAAUGGGGCACAAGUGAAGGAGCUAGAAGAAAGCAAGUGCCAAAUUCCAGUCCACUCUCAAGAGAACAGGAUAACUAAGACUGUCAACAGAGGAUUGAGCAUCA
B16: chr12:120444061:120444162:-|3pUTR|ENSG00000170855|unk|FALSE|unique (ssRNA)
RNA: GGGAGUUCUACAGUCCGACGAUCAAUUGUCAACCUGCAUAUCCUAAAAAUGUCAAAAUGCUGCAUCUGGUUAAAUGUCGGGGUAGGGGGGAAGCUGAAGGUGCUCGCUUCAUUUGCCUUGUUUACUCAUCCUGCCCUGUAAUGCAACAGAGGAUUGAGCAUCA
B17: ENSG00000070961:be:win_2901|CDS|ENSG00000070961|bound_else_gene|NA|bound_elsewhere_windowed (ssRNA)
RNA: GGGAGUUCUACAGUCCGACGAUCUCCUUCAGAACAUUAUACUAUUGUUUUUAAUACCUUUGUGCUGAUGCAACUUUUCAACGAAAUAAAUGCCCGGAAAAUUCAUGGUGAAAGAAAUGUAUUCGAAGGAAUCUUUAACAAUGCCAACAGAGGAUUGAGCAUCA
B18: chr1:161171309:161171815:-|three_prime_utr|ENSG00000158850|control|control|control (ssRNA)
RNA: GGGAGUUCUACAGUCCGACGAUCACCCUCAGCUCCUCACUGUUCUCAGAGGGAUGUGAGGGAACUGAACUCUGGUGCCGUGCUAGGGGGUAGGGGCCUCUCCCUCACUGCUGGACUGGAGCUGGGCUCCUGUAGACCUGAGGGCAACAGAGGAUUGAGCAUCA
B19: chr11:118373572:118373686:+|CDS|ENSG00000110344|unk|total|mutant (ssRNA)
RNA: GGGAGUUCUACAGUCCGACGAUCGAAGACCUUGCUGGGAGUAAUUCUGAGUAUCUCCUGCUUAUUAAAGACUCCGGGUGUUGCCGAAAAUCAUGGCUACUUUUUGAAUCCAUCUCGUUCCAGCCCCCAGGAGAUCAAAGUACACAACAGAGGAUUGAGCAUCA
B20: chr4:38700566:38700667:+|3pUTR|ENSG00000109787|unk|FALSE|unique (ssRNA)
RNA: GGGAGUUCUACAGUCCGACGAUCUACAAAGCCAUCUUUACAUGCAUUAAACGAGGGCUACAACAAUAUUGUUUUACAAAUACUAGCACUUUUUUUUCUGUUAUGUACUUAGUGUUAGAGGGUCAAAAUAAUCUUUCUGCUUAGCAACAGAGGAUUGAGCAUCA
B21: chr1:246839951:246840052:-|3pUTR|ENSG00000153207|msi1|total|mutant (ssRNA)
RNA: GGGAGUUCUACAGUCCGACGAUCAAAUGUAAAAUAAAUCUGUUUAUGGAUAUUGAGUGCAUCUUGUAUGUGCCUAAUAUUGACCGGAUGAGAUGUCUGAACAAAUUUUUAUAAUAUUGCUGUGAAGGAGCUUGCUAUUGAACCCAACAGAGGAUUGAGCAUCA
B22: chr9:116699486:116699595:+|CDS|ENSG00000119401|unk|FALSE|unique (ssRNA)
RNA: GGGAGUUCUACAGUCCGACGAUCUUCCGCUGCAUUGCUGGCAUGUGUGUGGAUGCUCGUGGUGAUCUCAUCGUGGCUGACAGUAGUCGCAAGGAAAUUCUCCAUUUUCCUAAGGGUGGGGGCUAUAGUGUCCUUAUUCGAGAGCAACAGAGGAUUGAGCAUCA

target: MSI1 full-length (mouse, UniProt Q61474 1-362); test: nsRBNS (natural sequence RNA bind-n-seq); RBNS binding buffer (assumed for nsRBNS): 25 mM Tris pH 7.5, 150 mM KCl, 3 mM MgCl2, 0.01% Triton X-100, 500 ug/ml BSA, 20 U/ml SUPERase-In, 4 C; UNK is unkempt and MSI1 is Musashi-1; names of the RNAs are library labels; protein concentration not given here; high values mean tight binding
UniProt Q61474, sequence (Q61474 whole entry): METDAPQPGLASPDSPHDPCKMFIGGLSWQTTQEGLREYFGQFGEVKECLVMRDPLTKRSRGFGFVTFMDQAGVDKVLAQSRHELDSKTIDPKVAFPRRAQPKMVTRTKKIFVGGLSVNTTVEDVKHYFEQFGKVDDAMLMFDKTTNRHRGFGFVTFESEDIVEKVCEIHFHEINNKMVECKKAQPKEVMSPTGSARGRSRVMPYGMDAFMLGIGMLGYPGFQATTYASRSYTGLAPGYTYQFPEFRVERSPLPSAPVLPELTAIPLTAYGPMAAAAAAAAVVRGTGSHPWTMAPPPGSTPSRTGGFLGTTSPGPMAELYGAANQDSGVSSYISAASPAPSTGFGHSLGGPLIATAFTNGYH

| Binder | binding signal |
| --- | --- |
| B1 | 0.787 enrichment R |
| B2 | 0.919 enrichment R |
| B3 | 0.338 enrichment R |
| B4 | 1.54 enrichment R |
| B5 | 2.13 enrichment R |
| B6 | 0.296 enrichment R |
| B7 | 1.41 enrichment R |
| B8 | 3.86 enrichment R |
| B9 | 5.38 enrichment R |
| B10 | 1.98 enrichment R |
| B11 | 0.697 enrichment R |
| B12 | 0.308 enrichment R |
| B13 | 0.99 enrichment R |
| B14 | 2.45 enrichment R |
| B15 | 0.324 enrichment R |
| B16 | 0.416 enrichment R |
| B17 | 0.352 enrichment R |
| B18 | 0.493 enrichment R |
| B19 | 0.396 enrichment R |
| B20 | 1.34 enrichment R |
| B21 | 0.265 enrichment R |
| B22 | 0.63 enrichment R |

Source: article PMC12136788
